The other results are listed elsewhere or left out. Shown are side measurements of this screen, not its main read-out; they come without a call.
Key:
Assay in all cases: Primary Screen for Target Class Profiling of Small Molecule Inhibitors of Methyltransferases
[1] = molecular target: Glycine N-methyltransferase (Homo sapiens) (UniProt Q14749); conditions: purified enzyme, MTase-Glo SAH luminescence; measured here: GNMT inhibition; at 40 µM; stronger effect = lower value
Method in brief: (§1)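 Each enzyme was reacted with SAM and its substrate, with compounds tested once at 40 uM; SAH formed was read by MTase-Glo luminescence.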

[2] = molecular target: Guanidinoacetate N-methyltransferase (Homo sapiens) (UniProt Q14353); conditions: purified enzyme, MTase-Glo SAH luminescence; measured here: GAMT inhibition; at 40 µM; stronger effect = lower value
Method in brief: as §1

[3] = molecular target: Histamine N-methyltransferase (Homo sapiens) (UniProt P50135); conditions: purified enzyme, MTase-Glo SAH luminescence; measured here: HNMT inhibition; at 40 µM; stronger effect = lower value
Method in brief: as §1

[4] = molecular target: Nicotinamide N-methyltransferase (Homo sapiens) (UniProt P40261); conditions: purified enzyme, MTase-Glo SAH luminescence; measured here: NNMT inhibition; at 40 µM; stronger effect = lower value
Method in brief: as §1

[5] = molecular target: Phenylethanolamine N-methyltransferase (Homo sapiens) (UniProt P11086); conditions: purified enzyme, MTase-Glo SAH luminescence; measured here: PNMT inhibition; at 40 µM; stronger effect = lower value
Method in brief: as §1
% is scaled to controls: 0 for no effect and ±100 for the full control effect.

| Structure (SMILES) | activity change, negative = inhibition [1] [%] | activity change, negative = inhibition [2] [%] | activity change, negative = inhibition [3] [%] | activity change, negative = inhibition [4] [%] | activity change, negative = inhibition [5] [%] |
| --- | --- | --- | --- | --- | --- |
| O=C(c1ccc(OC(F)F)cc1)N1C[C@H](CO)C[C@H](CN2CCCC2)C1 | -6.58 | -7.74 | -4.36 | -13.6 | -6.19 |
| CCNc1ncc(CN2CCN(c3ccncc3)CC2)cn1 | -2.22 | -3.21 | -57.9 | -3.27 | -0.571 |
| C1=C(c2nc(-c3ccncc3)cc3c2ccn3Cc2cccnc2)CCOC1 | -53.7 | -39.5 | -54.8 | -46.2 | -64.1 |
| COc1ccc(C)cc1N1C(=O)Cn2cccc2C1C(=O)NC1CCC(C)CC1 (stereo not given) | -0.269 | 7.55 | -2.83 | -3.48 | -2.38 |
| CC(=O)Nc1ccc(Nc2nc3c(S(=O)(=O)c4ccc(C)cc4)nnn3c3ccc(Cl)cc23)cc1 | -22.4 | 0 | 5.67 | -7.15 | -6.48 |
| C/C=C/C1=CC2=C(CO1)C(=O)C(C)(O)C(OC(=O)c1c(C)cc(OC)cc1O)C2 (stereo not given) | -7.56 | -2.2 | 10.3 | -16.8 | -11.5 |
| COc1cc([C@H]2c3cc(O)c(OC)cc3C[C@@H](CO[C@@H]3O[C@H](CO)[C@@H](O)[C@H](O)[C@H]3O)[C@@H]2CO)ccc1O | -0.413 | -4.36 | 4.03 | -13.7 | -10.4 |
| O=C1NC2(CCN(Cc3ccsc3)C2)Oc2ccccc21 (stereo not given) | -11.1 | -10.6 | -4.91 | -23.2 | -26.8 |
| CC1(C(=O)NC2CCCC2)Cn2c(cc3ccccc32)C(=O)N1Cc1ccccc1 (stereo not given) | 0.224 | 0.014 | 3.09 | -0.261 | -2.98 |
| Cc1ccsc1CCNC(=O)CCc1nnc2n(CCc3ccccc3)c(=O)c3ccccc3n12 | -13.7 | -2.88 | -8.77 | -24.4 | -13.8 |
| CC(C)Cn1c(=O)c2ccccc2n2c(SCC(=O)NCc3ccccc3Cl)nnc12 | -7.58 | -11.9 | 9.43 | -17.2 | -4.12 |
| COC(=O)c1cc2n(n1)CC(C)(C(=O)NC1CCCC1)N(c1ccc(F)cc1C)C2=O (stereo not given) | -0.288 | -0.933 | 3.56 | 2.41 | -1.49 |
| Cc1nc(-c2ccc(OC3CCN(C(=O)NC4CCCCC4)C3)cc2)no1 (stereo not given) | -2.09 | -2.72 | -1.02 | -3.89 | -2.87 |
| C=CCc1ccc(O[C@@H]2O[C@H](CO[C@@H]3O[C@H](CO)[C@@H](O)[C@H](O)[C@H]3O)[C@@H](O)[C@H](O)[C@H]2O)c(O)c1 | -1.86 | -22.9 | 0.083 | -42.4 | -5.62 |
| CCC(C)NC(=O)c1ccc2c(=O)n(C(C)C)c3nn(Cc4ccccc4Cl)c(=O)n3c2c1 (stereo not given) | 1.58 | 2.12 | 2.07 | 5.03 | 2.6 |
| CN1C(=O)c2cc(C(=O)NCCN3CCOCC3)nn2CC1(C)C(=O)NCc1ccccc1 (stereo not given) | -3.24 | -3.74 | 1.68 | -9.15 | -5.68 |
| CCOC(=O)c1cc2n(n1)CC(C)(C(=O)NCc1ccccc1OC)N(c1ccccc1C)C2=O (stereo not given) | 3.84 | 0 | 7.95 | 3.8 | 2.65 |
| CC(C)N1CCN(C(=O)C23CCCC=C2N(c2ccccc2)C(=O)CC3)CC1 (stereo not given) | -4.8 | -7.93 | -1.55 | -6.84 | -8.01 |
| COc1cc(Nc2ncc3c(n2)-c2ccc(Cl)cc2C(c2c(F)cccc2OC)=NC3)ccc1C(=O)O | -73.7 | -3.78 | -60.9 | -38.3 | -11.4 |
| CCN(CC)c1ccc2c(O)c(C=Nc3ccc(CC(=O)O)c(-c4c5c(nc6ccccc46)CCC(C(=O)NN)C5)c3)c(=O)oc2c1 (stereo not given) | -16.1 | -25.7 | -37.8 | -56.8 | -31.8 |

| Structure (SMILES) | activity change, negative = inhibition [1] [%] | activity change, negative = inhibition [2] [%] | activity change, negative = inhibition [3] [%] | activity change, negative = inhibition [4] [%] | activity change, negative = inhibition [5] [%] |
| --- | --- | --- | --- | --- | --- |
| CC1CCCCC1NC(=O)C1(C)Cn2c(cc3occc32)C(=O)N1CCCc1ccccc1 (stereo not given) | 6.35 | 6.35 | 8.15 | 6.26 | 1.77 |
| CC(C)c1cc2c(c(O)c1O[C@@H]1O[C@H](CO)[C@@H](O)[C@H](O)[C@H]1O)CC1(O)CCC(O)C(C)(C)C1CC2 (stereo not given in full) | -4.1 | -1.23 | 8.38 | -12.1 | 1.39 |
| CC1CC(C)CN(S(=O)(=O)c2ccc3c(c2)oc(=O)n3CC(=O)NCc2cccnc2)C1 (stereo not given) | -1.51 | 0 | 3.86 | 6.73 | -4.44 |
| CCc1ccc(/C=C2/SC(=S)NC2=O)cc1 | -77.2 | 7.8 | -6.18 | -22.5 | 3.42 |
| Cc1cnc(C(=O)N2CCC(c3nnc(CN4CCCC4)n3C3CC3)CC2)cn1 | -2.37 | -0.978 | -1.44 | -7.22 | 11.6 |
| Cc1ccc(Nc2nccc(N(C)c3ccc4c(C)n(C)nc4c3)n2)cc1S(N)(=O)=O | -13.7 | 2.69 | -51.9 | -18.5 | -2.36 |
| COCCCNC(=O)C1(C)Cn2nc(-c3ccccc3)cc2C(=O)N1Cc1ccccc1OC (stereo not given) | 0.366 | -0.127 | 2.16 | 1.09 | -2.08 |
| O=C1COc2ccc(-c3ccsc3)nc2CN1Cc1ccccc1 | -16.4 | -8.6 | -7.83 | -14.7 | -8.91 |
| CC(C)(C)c1nn2c(SCC(=O)Nc3cccc(F)c3)nnc2[nH]c1=O | -4.46 | 3.45 | -6.58 | -11.8 | -10.7 |
| CN(CC(=O)Nc1ccc(Cl)cc1)S(=O)(=O)c1ccc2[nH]c3c(c2c1)CCCC3 | -6.21 | 0.065 | -8.28 | -13.4 | -8.22 |
| Cc1nc(C)c(CC(=O)N2CCCC(C)(Cc3ccc4c(c3)OCO4)C2)s1 (stereo not given) | -10.5 | -6.24 | -2.42 | -17.4 | -15.7 |
| COc1ccc(CNC(=O)Cn2nc3n(Cc4ccc(C)cc4)c(=O)c4ccccc4n3c2=O)cc1 | 5.61 | 0.938 | 6.74 | 8.44 | 5.64 |
| COc1cccc(CNC(=O)c2ccc3c(=O)nc4c(-c5ccc(Cl)cc5)n[nH]n4c3c2)c1 | -8.53 | -1.77 | -0.729 | -2.94 | -3.94 |
| O=C(Nc1cnc(-c2ccc(Cl)cc2)nc1)c1cccs1 | -0.482 | -0.63 | -2.03 | 2.94 | -20.8 |
| CCCn1ccnc1CN1CCCC12CCN(c1ccc(C(F)(F)F)cn1)CC2 | -3.4 | 1.4 | -7.72 | -3.61 | 2 |
| COc1cccc(N2CCN(S(=O)(=O)c3cccc(-c4nc(-c5ccccc5)no4)c3)CC2)c1 | 11.6 | 0 | 9.89 | 5.27 | 4.09 |
| CN1C(=O)c2cc(C(=O)NCc3cccc(Cl)c3)nn2CC1(C)C(=O)NC1CCCCC1 (stereo not given) | 2.77 | 0.964 | 8.12 | 6.85 | -5.67 |
| O=C(COc1ccccc1)Nc1ccc2c(c1)CN(Cc1ccccc1F)C(=O)CO2 | -8.63 | -3.83 | -9.24 | -16.8 | -6.08 |
| Cc1cc(C)cc(NC(=O)Cn2nc3n(CC(C)C)c(=O)c4ccccc4n3c2=O)c1 | 2.72 | 0 | 5.28 | 2.73 | -2.79 |
| CC(C)c1noc([C@@H]2C[C@H](NC(=O)c3ccc(F)cc3)CN2C)n1 | -4.22 | -6.29 | -2.88 | -6.89 | -4.76 |

| Structure (SMILES) | activity change, negative = inhibition [1] [%] | activity change, negative = inhibition [2] [%] | activity change, negative = inhibition [3] [%] | activity change, negative = inhibition [4] [%] | activity change, negative = inhibition [5] [%] |
| --- | --- | --- | --- | --- | --- |
| COC(=O)c1ccc2c(c1)C1C=CCC1C(c1cccc3ccccc13)N2 (stereo not given) | -8.81 | -0.201 | -10.8 | -3.76 | -8.64 |
| C=CC(C)(O)CC[C@H]1C(=C)CCC2[C@](C)(C(=O)O)CCC[C@@]21C (stereo not given in full) | -0.468 | 3.19 | 11.5 | -11.4 | 3.39 |
| CCC1(O)CCC12CCN(C(=O)Cc1ccccc1)CC2 (stereo not given) | -2.93 | -3.06 | -1.78 | -10.9 | 8.73 |
| COc1ccc(S(=O)(=O)N2CCC[C@H]2C(=O)Nc2cc(C)cc(C)c2)cc1 | -1.9 | 3.24 | 9.66 | -17 | -6.11 |
| COc1cccc(CN2Cc3cc(NC(=O)c4ccc(F)cc4F)ccc3OC(C)C2=O)c1 (stereo not given) | -8.52 | -6.68 | -7.55 | -10.5 | -13.3 |
| O=S1(=O)NCC2(CCN(Cc3ccc(Cl)s3)CC2)Oc2ncccc21 | -5.2 | -4.62 | -1.51 | -7.79 | -0.957 |
| C=C1C(=O)O[C@@H]2C3C(=C(C)[C@@H](O)[C@@H](OC(=O)/C(=C/C)COC(C)=O)[C@@H]12)C(=O)[C@H]1O[C@@]31C (stereo not given in full) | -5.27 | -7.87 | 5.04 | -11 | -8.64 |
| CCCn1c(=O)c2ccccc2n2c(SCC(=O)Nc3cc(Cl)ccc3OC)nnc12 | 5.04 | 0 | 11.3 | 2.5 | 7.25 |
| CCC(C)NC(=O)c1ccc2c(=O)n(CC(C)C)c3nn(Cc4ccc(Cl)cc4)c(=O)n3c2c1 (stereo not given) | 0.497 | 2.16 | 3.79 | -0.762 | 1.58 |
| CCC1CCCCN1CCCNC(=O)Cn1ccc2cc(S(=O)(=O)N3CCCCC3)ccc21 (stereo not given) | -1.66 | 2.15 | -43.9 | -4.21 | -0.744 |
| CCc1ccc(CNC(=O)C(C)n2ccc3cc(S(=O)(=O)N4CCCCC4)ccc32)cc1 (stereo not given) | 2.07 | 4.87 | 1.78 | 1.7 | 0.779 |
| Cc1noc([C@@H]2CN(C(=O)c3cc(C4CC4)[nH]n3)C[C@H]2C(N)=O)n1 | -3.6 | -5.75 | -1.95 | -3.81 | -1.8 |
| CCCN1C(=O)c2c(C(=O)NCCc3ccc(C)cc3)ncn2CC1(C)C(=O)NCCC(C)C (stereo not given) | 2.45 | 0.801 | 1.85 | 0.32 | 5.73 |
| CCC1(C)CC(CC(=O)O)(c2ccc(OC)cc2)CCO1 (stereo not given) | 3.15 | 1.07 | 7.34 | 9.89 | 2.12 |
| CC(C)=C1CC2C(CCC2(C)O)C(C)(O)CC1=O (stereo not given) | 0.717 | -2.44 | 8.22 | -13.2 | 5.73 |
| COCCNC(=O)c1nc(-c2ccsc2)c2ccccn12 | -12.8 | -7.62 | -3.2 | -7.52 | -5.86 |
| CC(=O)Oc1ccc(C2(c3ccc(OC(C)=O)cc3)Oc3ccccc3NC2=O)cc1 | 0.644 | 8.98 | 6.74 | -11.8 | 2.09 |
| CN(CCO)C(=O)c1cn2cc(-c3cccs3)n(CC3CC3)c(=O)c2n1 | -5.43 | 0.245 | -0.492 | -4.94 | -1.03 |
| NC(=O)CN1C(=O)[C@@H]2CN(C(=O)c3cccs3)CCN2C1=O | -1.85 | -2.12 | -3.44 | -9.15 | 0.043 |
| Cn1c(=O)sc2cc(NS(=O)(=O)c3ccc4c(c3)n(C)c(=O)n4C)ccc21 | 8.29 | 0 | 4.4 | -0.919 | -2.08 |

— PubChem BioAssay AID1745853 (National Center for Advancing Translational Sciences (NCATS), 2022)
